Laboratory results reported in patent US20210047304A1, “Bromodomain Inhibitors” (AbbVie Inc., priority 2016, published 2021).

Molecular target: BRD4 (BDII_E352-M457) (Homo sapiens, UniProt O60885)
Assay: TR-FRET bromodomain binding assay, BRD4 BDII
Procedure: A time-resolved fluorescence resonance energy transfer (TR-FRET) assay was used to determine the affinities of compounds of the Examples listed in Table 1 for each bromodomain of BRD4. […] An Alexa647-labeled BET-inhibitor was used as the fluorescent probe in the assay.
(§1) Compound dilution series were prepared in DMSO via an approximately 3-fold serial dilution. Compound dilutions were added directly into white, low-volume assay plates (Perkin Elmer Proxiplate 384 Plus #6008280) using a Labcyte Echo in conjunction with Labcyte Access and Thermo Multidrop CombinL robotics. Compounds were then suspended in eight microliters (μL) of assay buffer (20 mM Sodium Phosphate, pH 6.0, 50 mM NaCl, 1 mM Ethylenediaminetetraacetic acid disodium salt dihydrate, 0.01% Triton X-100, 1 mM DL-Dithiothreitol) containing His-tagged bromodomain, Europium-conjugated anti-His antibody (Invitrogen PV5596) and Alexa-647-conjugated probe.
After a one-hour equilibration at room temperature, TR-FRET ratios were determined using an Envision multilabel plate reader (Ex 340, Em 495/520).
TR-FRET data were normalized to the means of 24 no-compound controls (“high”) and 8 controls containing 1 μM un-labeled probe (“low”). Percent inhibition was plotted as a function of compound concentration and the data were fit with the 4 parameter logistic equation to obtain IC50s. Inhibition constants (Ki) were calculated from the IC50s, probe Kd and probe concentration.
Compound dilution series for Compounds A-E were prepared in DMSO via an approximately 3-fold serial dilution from 0.47 mM to 7.8 nM.
as §1, with “Compound” for “Compound dilution series were prepared in DMSO via an approximately 3-fold serial dilution. Compound”
The final concentration of 1× assay mixture contained 2% DMSO, 8 nM His-tagged bromodomain, 1 nM Europium-conjugated anti-His-tag antibody and 100 nM or 30 nM probe (for BDI or BDII, respectively) and compound concentration in the range of 9.19 μM-150 pM.
TR-FRET data were normalized to the means of 24 no-compound controls (“high”) and 8 controls containing 1 μM un-labeled probe (“low”). Percent inhibition was plotted as a function of compound concentration and the data were fit with the 4 parameter logistic equation to obtain IC50s. Inhibition constants (Ki) were calculated from the IC50s, probe Kd and probe concentration. Typical Z′ values were between 0.65 and 0.75. The minimum significant ratio was determined to evaluate assay reproducibility (Eastwood et al., (2006) J Biomol Screen, 11: 253-261). The MSR was determined to be 2.03 for BDI and 1.93 for BDII, and a moving MSR (last six run MSR overtime) for both BDI and BDII was typically <3.

SMILES	Ki [nM]
COCC(=O)N1CCC(Oc2cc(=O)n(C)cc2-c2cc(C(C)(C)O)cnc2Oc2c(C)cc(F)cc2C)CC1 [Example 26, 2′-(4-fluoro-2,6-dimethylphenoxy)-5′-(2-hydroxypropan-2-yl)-4-{[1-(methoxyacetyl)piperidin-4-yl]oxy}-1-methyl[3,3′-bipyridin]-6(1H)-one]	300
CC(=O)N([C@H](C)c1ccc(Oc2c(C)cccc2C)c(-c2cn(C)c(=O)cc2O[C@H]2CC[C@H](NC(=O)C3(C)CC3)CC2)c1)[C@@H](C)c1ccccc1 [Example 116, N-{trans-4-[(5-{5-[(1R)-1-{acetyl[(1S)-1-phenylethyl]amino}ethyl]-2-(2,6-dimethylphenoxy)phenyl}-1-methyl-2-oxo-1,2-dihydropyridin-4-yl)oxy]cyclohexyl}-1-methylcyclopropane-1-carboxamide]	2.37
Cc1cc(F)cc(C)c1Oc1ccc(C(C)(C)O)cc1-c1cn(C)c(=O)cc1O[C@H]1CC[C@H](N2C(=O)CCC(C)(C)C2=O)CC1 [Example 89, 1-[trans-4-({5-[2-(4-fluoro-2,6-dimethylphenoxy)-5-(2-hydroxypropan-2-yl)phenyl]-1-methyl-2-oxo-1,2-dihydropyridin-4-yl}oxy)cyclohexyl]-3,3-dimethylpiperidine-2,6-dione]	5.71
Cc1ccc(=O)n([C@H]2CC[C@H](Oc3cc(=O)n(C)cc3-c3cc(C(C)(C)O)ccc3Oc3c(C)cc(F)cc3C)CC2)n1 [Example 130, 2-[trans-4-({5-[2-(4-fluoro-2,6-dimethylphenoxy)-5-(2-hydroxypropan-2-yl)phenyl]-1-methyl-2-oxo-1,2-dihydropyridin-4-yl}oxy)cyclohexyl]-6-methylpyridazin-3(2H)-one]	1.52
Cc1cc(F)cc(C)c1Oc1ccc(C(C)(C)O)cc1-c1cn(C)c(=O)cc1O[C@H]1CC[C@H](C(=O)O)CC1 [Example 61, trans-4-({5-[2-(4-fluoro-2,6-dimethylphenoxy)-5-(2-hydroxypropan-2-yl)phenyl]-1-methyl-2-oxo-1,2-dihydropyridin-4-yl}oxy)cyclohexane-1-carboxylic acid]	24.7
Cc1cc(F)cc(C)c1Oc1ccc(C(C)(C)O)cc1-c1cn(C)c(=O)cc1O[C@H]1CC[C@H](C(C)(C)O)CC1 [Example 67, 5-[2-(4-fluoro-2,6-dimethylphenoxy)-5-(2-hydroxypropan-2-yl)phenyl]-4-{[trans-4-(2-hydroxypropan-2-yl)cyclohexyl]oxy}-1-methylpyridin-2(1H)-one]	2.04
Cc1cc(F)cc(C)c1Oc1ccc(C(C)(C)O)cc1-c1cn(C)c(=O)cc1O[C@H]1CC[C@H](N2C(=O)NC3(CC3)C2=O)CC1 [Example 136, 6-[trans-4-({5-[2-(4-fluoro-2,6-dimethylphenoxy)-5-(2-hydroxypropan-2-yl)phenyl]-1-methyl-2-oxo-1,2-dihydropyridin-4-yl}oxy)cyclohexyl]-4,6-diazaspiro[2.4]heptane-5,7-dione]	3.46
Cc1cc(F)cc(C)c1Oc1ccc(C(C)(C)O)cc1-c1cn(C)c(=O)cc1OC1CCC(C)(N2CCCC2=O)CC1 (stereo not drawn) [Example 34, 5-[2-(4-fluoro-2,6-dimethylphenoxy)-5-(2-hydroxypropan-2-yl)phenyl]-1-methyl-4-{[trans-4-methyl-4-(2-oxopyrrolidin-1-yl)cyclohexyl]oxy}pyridin-2(1H)-one]	23.1
Cc1cc(F)cc(C)c1Oc1ccc(C(C)(C)O)cc1-c1cn(C)c(=O)cc1O[C@H]1CC[C@H](NC(=O)C(F)(F)F)CC1 [Example 117, 2,2,2-trifluoro-N-[trans-4-({5-[2-(4-fluoro-2,6-dimethylphenoxy)-5-(2-hydroxypropan-2-yl)phenyl]-1-methyl-2-oxo-1,2-dihydropyridin-4-yl}oxy)cyclohexyl]acetamide]	8.53
CC(=O)NN[C@H]1CC[C@@H](Oc2cc(=O)n(C)cc2-c2cc(C(C)(C)O)ccc2Oc2c(C)cc(F)cc2C)CC1 [Example 99, N′-[cis-4-({5-[2-(4-fluoro-2,6-dimethylphenoxy)-5-(2-hydroxypropan-2-yl)phenyl]-1-methyl-2-oxo-1,2-dihydropyridin-4-yl}oxy)cyclohexyl]acetohydrazide]	326
COCCCN(C(=O)C1(C)CC1)[C@H]1CC[C@H](Oc2cc(=O)n(C)cc2-c2cc(C(C)(C)O)ccc2Oc2c(C)cc(F)cc2C)CC1 [Example 65, N-[trans-4-({5-[2-(4-fluoro-2,6-dimethylphenoxy)-5-(2-hydroxypropan-2-yl)phenyl]-1-methyl-2-oxo-1,2-dihydropyridin-4-yl}oxy)cyclohexyl]-N-(3-methoxypropyl)-1-methylcyclopropane-1-carboxamide]	8.84
Cc1cccc(C)c1Oc1ccc(C(C)(C)O)cc1-c1cn(C)c(=O)cc1O[C@H]1CC[C@H](N2CCCC2=O)CC1 [Example 27, 5-[2-(2,6-dimethylphenoxy)-5-(2-hydroxypropan-2-yl)phenyl]-1-methyl-4-{[trans-4-(2-oxopyrrolidin-1-yl)cyclohexyl]oxy}pyridin-2(1H)-one]	0.834
Cc1cc(F)cc(C)c1Oc1ccc(C(C)(C)O)cc1-c1cn(C)c(=O)cc1O[C@H]1CC[C@H](n2nccc2O)CC1 [Example 114, 5-[2-(4-fluoro-2,6-dimethylphenoxy)-5-(2-hydroxypropan-2-yl)phenyl]-4-{[trans-4-(5-hydroxy-1H-pyrazol-1-yl)cyclohexyl]oxy}-1-methylpyridin-2(1H)-one]	6.07
COC(=O)N[C@H]1CC[C@H](Oc2cc(=O)n(C)cc2-c2cc(C(C)(C)O)ccc2Oc2c(C)cc(F)cc2C)CC1 [Example 4, methyl [trans-4-({5-[2-(4-fluoro-2,6-dimethylphenoxy)-5-(2-hydroxypropan-2-yl)phenyl]-1-methyl-2-oxo-1,2-dihydropyridin-4-yl}oxy)cyclohexyl]carbamate]	2.44
Cc1cc(F)cc(C)c1Oc1ccc(C(C)(C)O)cc1-c1cn(C)c(=O)cc1O[C@H]1CC[C@H](NC(=O)C2(C(N)=O)CC2)CC1 [Example 111, N-[trans-4-({5-[2-(4-fluoro-2,6-dimethylphenoxy)-5-(2-hydroxypropan-2-yl)phenyl]-1-methyl-2-oxo-1,2-dihydropyridin-4-yl}oxy)cyclohexyl]cyclopropane-1,1-dicarboxamide]	4.11
Cc1cc(F)cc(C)c1Oc1ccc(C(C)(C)O)cc1-c1cn(C)c(=O)cc1O[C@H]1CC[C@H](NC(=O)C(C)(C)CCO)CC1 [Example 47, N-[trans-4-({5-[2-(4-fluoro-2,6-dimethylphenoxy)-5-(2-hydroxypropan-2-yl)phenyl]-1-methyl-2-oxo-1,2-dihydropyridin-4-yl}oxy)cyclohexyl]-4-hydroxy-2,2-dimethylbutanamide]	6.18
Cc1cc(F)cc(C)c1Oc1ccc(C(C)(C)O)cc1-c1cn(C)c(=O)cc1O[C@H]1CC[C@@H](C(C)(C)O)CC1 [Example 74, 5-[2-(4-fluoro-2,6-dimethylphenoxy)-5-(2-hydroxypropan-2-yl)phenyl]-4-{[cis-4-(2-hydroxypropan-2-yl)cyclohexyl]oxy}-1-methylpyridin-2(1H)-one]	1040
Cc1cc(F)cc(C)c1Oc1ccc(C(C)(C)O)cc1-c1cn(C)c(=O)cc1O[C@H]1CC[C@H](N2C(=O)NC(C)(C)C2=O)CC1 [Example 140, 3-[trans-4-({5-[2-(4-fluoro-2,6-dimethylphenoxy)-5-(2-hydroxypropan-2-yl)phenyl]-1-methyl-2-oxo-1,2-dihydropyridin-4-yl}oxy)cyclohexyl]-5,5-dimethylimidazolidine-2,4-dione]	5.77
Cc1cc(F)cc(C)c1Oc1ccc(C(C)(C)O)cc1-c1cn(C)c(=O)cc1O[C@H]1CC[C@H](NC(=O)C2(C)CC2)CC1 [Example 51, N-[trans-4-({5-[2-(4-fluoro-2,6-dimethylphenoxy)-5-(2-hydroxypropan-2-yl)phenyl]-1-methyl-2-oxo-1,2-dihydropyridin-4-yl}oxy)cyclohexyl]-1-methylcyclopropane-1-carboxamide]	2.33
Cc1cccc(C)c1Oc1ccc(C(C)(C)O)cc1-c1cn(C)c(=O)cc1NC1CCN(S(C)(=O)=O)CC1 [Example 2, 5-[2-(2,6-dimethylphenoxy)-5-(2-hydroxypropan-2-yl)phenyl]-4-{[1-(methanesulfonyl)piperidin-4-yl]amino}-1-methylpyridin-2(1H)-one]	6.13
